# From PubChem BioAssay AID686979 (National Center for Advancing Translational Sciences (NCATS), 2013)
# About 50,000 (12%) of roughly 420,000 compounds were called active. The inconclusive results got no clear call from the source; some entries with a clear call stand among them for comparison. The call rests on the fitted dose curve; in most records, active means well fitted inhibition curve with a large enough effect; inconclusive means small, poorly fitted or top-dose-only effect; inactive means flat fitted curve, though single readings scatter. No potency is given beside an inconclusive call; the fits are too rough.
# Assay: qHTS for Inhibitors of human tyrosyl-DNA phosphodiesterase 1 (TDP1): qHTS in cells in presence of CPT; further: nearly all actives have a fitted effect of over 55% in size
# Conditions: chicken DT40 Tdp1-/-;hTDP1 cells + 20 nM CPT, ATP luminescence, 48 h; activity change, negative = growth inhibition: at 46.2 µM (top of the series) unless noted
# In short: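 Chicken DT40 Tdp1-/- cells complemented with human TDP1, 400 cells/well, exposed to compounds plus 20 nM camptothecin for at least 48 h at 37 C; viability read as ATP content by CellTiter-Glo luminescence.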
# On the % scale 0 is the no-effect control and ±100 the full control effect; potency means the concentration at half of the fitted maximal effect; tags describe the fitted curve by direction and shape.
Compound,Potency,"activity change, negative = growth inhibition"
CN(C(=O)c1ccc(NC(=O)Cc2ccc(NC(=O)C3CCCN(C(=O)CCc4ccccc4)C3)cc2)cc1)C1CCCC1 (stereo unspecified),active: 23.1 µM,
COc1ccc(OCC(=O)Nn2c(-c3ccc(C)cc3)nc3ccccc3c2=O)cc1,"inconclusive [inhibitor, single point]",
CCN(CC)c1ccc(C2C3CCCCC3(O)CCN2CC(=O)Nc2ccccc2)cc1 (stereo unspecified),"inconclusive [inhibitor, partial curve]",
COc1ccc(N(CC(=O)Nc2ccc(S(=O)(=O)N3CCOCC3)cc2)S(=O)(=O)c2ccccc2)cc1,active: 16.4 µM,
COc1ccc(C(C(=O)NC2CCCCC2)N(C(=O)c2snc(C(N)=O)c2N)c2ccccc2OC)cc1 (stereo unspecified),"inconclusive [inhibitor, single point]",
Clc1ccc(-c2cnc3n2CCCCC3)cc1,active: 14.6 µM,
Nc1cccc(/C=C2\C=Cc3ccccc32)c1,"inconclusive [inhibitor, full curve, poor fit]",
COc1ccc(N2CCN(C(=O)COC(=O)c3cc(S(=O)(=O)N(C)C)ccc3N3CCCC3)CC2)cc1,"inconclusive [inhibitor, single point]",
Cc1csc2c(N3CCN(C(=O)Nc4ccc(Cl)c(Cl)c4)CC3)ncnc12,"inconclusive [inhibitor, single point]",
COc1cccc(-c2nc(-c3ccccn3)no2)c1OC,active: 23.1 µM,
O=C(C(=O)N1CCN(c2ccccc2)CC1)c1cccc(Br)c1,inactive,
Cc1nn2c(=O)cc(COC(=O)COc3ccccc3C)nc2s1,inactive,
O=C(C1CCCCC1)N1CCN=C1SCc1cccc([N+](=O)[O-])c1,"inconclusive [inhibitor, single point]",
O=C(Nc1ccc2nc(-c3ccco3)c(-c3ccco3)nc2c1)NC1CC1,active: 20.6 µM,
CCOC(=O)c1sc2nc3c(cc2c1N)COC(C)(CC)C3 (stereo unspecified),"inconclusive [inhibitor, single point]",
COC(=O)c1cnc(N2CCCN(S(=O)(=O)c3ccc(C(F)(F)F)cc3)CC2)nc1C(F)(F)F,"inconclusive [inhibitor, single point]",
CC(C)Nc1nc(Nc2ccc(Cl)cc2F)c2sccc2n1,active: 20.6 µM,
CC1(C(=O)NCC2CC2)CCN1C(=O)C1(c2ccc(Cl)cc2)CC1 (stereo unspecified),"inconclusive [inhibitor, single point]",
CC(=O)NC(CSC(CC(=O)c1ccco1)c1ccc(C)cc1)C(=O)O (stereo unspecified),"inconclusive [inhibitor, single point]",
O=C(CN(CCc1ccccc1)S(=O)(=O)c1ccc(Br)cc1)N/N=C/c1ccc2c(c1)OCO2,"inconclusive [inhibitor, single point]",
C=C1CCC[C@]2(C)C[C@H]3OC(=O)C(CN(Cc4ccc(OC)c(OC)c4)CC(C)O)[C@H]3CC12 (stereo partly specified),"inconclusive [inhibitor, single point]",
CC(=O)NC(c1cccc(F)c1)c1nc(-c2cc3ccccc3o2)cs1 (stereo unspecified),"inconclusive [inhibitor, single point]",
COc1ccccc1N(C)S(=O)(=O)c1ccc(C(=O)N2CCC2)cc1,,inconclusive: -36.4% [inhibitor]
Nc1[nH]c(C(=O)c2ccccc2)c(-c2ccccc2Br)c1C(=O)NCc1ccc(-c2ccccc2)cc1,active: 23.1 µM,

Compound,Potency,"activity change, negative = growth inhibition"
CCOC(=O)[C@H](CCc1ccccc1)N[C@@H](C)C(=O)N1Cc2ccccc2C[C@H]1C(=O)O,"inconclusive [inhibitor, full curve, poor fit]",
CCOc1ccc(-c2c(=O)n(O)c3ccccc3[n+]2[O-])cc1,"inconclusive [inhibitor, single point]",
COc1ccccc1NC(=O)c1c(C)oc2c1CCCC2,"inconclusive [inhibitor, single point]",
CCN(C(=O)COC(=O)CNC(=O)c1ccccc1C)C1=CCCCC1,inactive,
CC(=O)Nc1ccc(-c2csc(NNC(=O)c3ccccc3)n2)cc1,active: 11.6 µM,
COc1ccc(OCC(=O)N2c3ccccc3CC2C)c([N+](=O)[O-])c1 (stereo unspecified),"inconclusive [inhibitor, single point]",
Cc1cccc(C)c1NC(=O)CN(C)CC(=O)Nc1sc2c(c1C(N)=O)CCC2,"inconclusive [inhibitor, single point]",
O=C1CC(c2ccccc2)=Nc2ccc(Br)cc2N1,"inconclusive [inhibitor, single point]",
CCS(=O)(=O)c1nc(S(=O)(=O)c2ccc(C)cc2)c(NCc2ccccc2Cl)s1,active: 16.4 µM,
CCOC(=O)N/N=C/c1cn(CCCOc2ccccc2)c2ccccc12,"inconclusive [inhibitor, single point]",
COc1cc2c(cc1OC)C(COc1ccc(C(C)C)cc1)N(C(=O)COc1ccccc1)CC2 (stereo unspecified),"inconclusive [inhibitor, partial curve, poor fit]",
Cc1ccnc(NC(=O)c2oc3ccccc3c2C)c1,"inconclusive [inhibitor, single point]",
N/C(=N\OC(=O)CSc1ccccc1)c1ccncc1,inactive,
CC1=NN(C(=O)c2ccc(Cn3nc(C)c(Br)c3C)cc2)C(O)(C(F)(F)F)C1 (stereo unspecified),active: 0.82 µM,
COc1cc(O)c(C(CC(=O)N2CCCC(C)C2)c2ccc(N(C)C)cc2)c(OC)c1 (stereo unspecified),"inconclusive [inhibitor, partial curve, poor fit]",
COc1ccc(N2CC(NC(=O)c3ccc(S(=O)(=O)N4CCOCC4)cc3)CC2=O)cc1 (stereo unspecified),inactive,
Cc1ccc(S(=O)(=O)N2CCN(C(=O)COC(=O)c3cc([N+](=O)[O-])ccc3NCCO)CC2)c(C)c1,"inconclusive [inhibitor, single point]",
COCCn1c(=O)c(CCc2ccccc2)nc2cnc(Oc3ccccc3)nc21,inactive,
COc1ccccc1C1C(C#N)=C(N)Oc2c1c(-c1ccccc1)nn2-c1ccccc1 (stereo unspecified),"inconclusive [inhibitor, single point]",
CCOP(=O)(OCC)C(Nc1ccccc1)c1cc(OC)ccc1OC (stereo unspecified),,inconclusive: -30.1% [inhibitor]
Cc1ccc(OCCC(=O)Nc2ccc3c(c2)OCCCO3)cc1,inactive,
CCc1cc2c(=O)c(-c3ccc4c(c3)OCCO4)coc2c(CN2CCCCC2C)c1O (stereo unspecified),active: 1.84 µM,
COc1cccc(C(=O)NNC(=O)c2cccc3ccccc23)c1,inactive,
COc1ccc(/C=N/NC(=S)Nc2cc(S(=O)(=O)N3CCOCC3)ccc2N2CCOCC2)cc1O,active: 9.2 µM,

Compound,Potency,"activity change, negative = growth inhibition"
CC1(C)C[C@@H]2C[C@@](C)(CN2C(=O)c2cc(COc3cccc(C(F)(F)F)c3)on2)C1,"inconclusive [inhibitor, single point]",
Cc1ccc(NS(=O)(=O)c2cc(C(=O)N3CCCC3)ccc2C)cc1C,"inconclusive [inhibitor, single point]",
C=C(/C=C/c1ccc(N(C)C)cc1)c1nc2ccccc2s1,active: 0.0891 µM,
O=C(O)c1ccccc1[O-].O=C(O)c1ccccc1[O-].[Zn+2],inactive,
Cc1cccc(NC(=O)C2CCCN2C(=O)NC2CCCCC2)c1 (stereo unspecified),inactive,
COc1ccc(NC(=O)CC2C(=O)N(c3ccc(C)cc3)C(=O)N2C2CCCC2)cc1 (stereo unspecified),,inconclusive: -34.9% [inhibitor]
Cc1ccc(-n2c3c(c(O)c(-c4ccccc4)c2=O)C(=O)CC(C)(C)C3)cc1,"inconclusive [inhibitor, single point]",
O=C(COc1ccc(S(=O)(=O)NC2CCCCC2)cc1Cl)N1CCN(c2ccccc2)CC1,"inconclusive [inhibitor, single point]",
COc1ccc(CCNC(=O)CCCn2c(=O)c3cccn3c3ccc(F)cc32)cc1OC,active: 14.6 µM,
CCc1cc2c(Sc3nc4ccccc4s3)ncnc2s1,active: 5.17 µM,
Cc1cc(=O)oc2c3c(cc(OCC(=O)NCc4cccnc4)c12)OC(C)(C)CC3,"inconclusive [inhibitor, single point]",
COc1ccc(C(=O)NCc2ccc(C)cc2)cc1S(=O)(=O)N1CCCc2ccccc21,"inconclusive [inhibitor, single point]",
Cc1cc(C)cc(NC(=O)CSc2nnc(CN3CCOCC3)n2C)c1,,inconclusive: -32% [inhibitor]
CC(NC(=O)c1cc2ccccn2n1)c1ccccc1 (stereo unspecified),inactive,
COc1ccccc1-c1cnn2c(NC3CCCC3)cc(C)nc12,active: 29.1 µM,
Nn1c(-c2cccc(O)c2)nnc1-c1cccc(O)c1,inactive,
C=CCn1cnc2c(nnn2-c2ccc(C)c(Cl)c2)c1=O,inactive,
CCN(CC)CCCN(C(C)=O)c1nc(-c2cc(OC)ccc2OC)cs1,"inconclusive [inhibitor, single point]",
Cc1ccc(C)c(CN2C(=O)C(O)(c3c[nH]c4ccccc34)c3ccccc32)c1 (stereo unspecified),active: 29.1 µM,
O=C(COc1ccc(Br)cc1)Nc1cccc2cccnc12,"inconclusive [inhibitor, single point]",
CC(C)C1Nc2ccc(S(N)(=O)=O)cc2C2C=CCC21 (stereo unspecified),,inconclusive: -33.6% [inhibitor]
On1c(-c2ccc(Cl)cc2Cl)nc2ncccc21,inactive,
CC1(Cc2ccc3c(c2)OCO3)C(=O)Nc2c(Cl)ccc(Cl)c21 (stereo unspecified),"inconclusive [inhibitor, single point]",
